From PubChem BioAssay (Tox21)
“And” between values parts separate entries of the source, which are not always exact repeats. Identical values can stand only once. This list was built around the results that the source calls inconclusive (neither active nor inactive); the mix of calls is not that of the screen. Potencies beside an inconclusive call are fits to weak or partial responses and may not hold up. The source holds several records for some structures; these can differ, active in one and inactive in another. The source made the active and inactive calls. Calls come from the whole dose curve; as a rule, active = well fitted cell-killing curve with a large enough effect in the repeat runs; inconclusive = weak or mixed curves, or effect the other way; inactive = no such curve, though single readings can be large or run the other way.

test: qHTS assay for identifying genotoxic compounds that show differential cytotoxicity against isogenic chicken DT40 cell lines with known DNA damage response pathways - wild type cell line (AID 743012); conditions: DT40 wild type chicken cells viability, CellTiter-Glo, 40 h; activity change, negative = cytotoxicity: at 68.4 µM (top of the series) unless noted; note: nearly all actives have a fitted effect of over 60% in size
How it was run: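 Viability by ATP luminescence (CellTiter-Glo, 30 min RT) after 40 h compound treatment at 37 C/5% CO2, using 300 parental DNA repair-proficient DT40 cells per well.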
% is set by controls: 0 for no effect and ±100 for the full control effect; potency is the fitted concentration of half-maximal effect; tags give direction and shape of the fitted curve.

SMILES	Potency	activity change, negative = cytotoxicity
CCCC(C)C	inactive	–
[O-][N+](=Nc1ccccc1)c1ccccc1	inconclusive: 26.6 µM [cytotoxic, partial curve]	–
C/C=C1\[C@H]2C=C(C)C[C@]1(N)c1ccc(=O)[nH]c1C2	inactive	–
CC(=O)c1ccccc1O	inactive	–
CC(=O)Oc1cc(C(C)C)c(OCCN(C)C)cc1C	inactive	–
CC[N+](CC)(CC(=O)Nc1c(C)cccc1C)Cc1ccccc1 (tested in a mixture with another compound)	inconclusive: 17.9 µM [cytotoxic, partial curve]	–
O=C(NCC1CCCCN1)c1cc(OCC(F)(F)F)ccc1OCC(F)(F)F (stereo not drawn)	active: 29.8 µM and inactive	–
CC(=O)OCC(CCn1cnc2cnc(N)nc21)COC(C)=O	inactive	–
CN1CCC(=C2c3ccccc3CC(=O)c3sccc32)CC1	inconclusive: 33.5 µM [cytotoxic, single point]	–
C[C@]12CCC(=O)C=C1CC[C@H]1[C@@H]3CC[C@](O)(C(=O)CO)[C@@]3(C)C[C@H](O)[C@@]12F	inconclusive: 11.9 µM [cytotoxic, partial curve, poor fit]	–
OC[C@@H](O)[C@H](O)[C@@H](O)[C@@H](O)CO	inconclusive: 34.4 µM [rising, partial curve, poor fit]	–
N[C@H](Cc1c[nH]c2ccccc12)C(=O)O	inactive	–
O=C(Nc1ccc2c(c1)Cc1ccccc1-2)C(F)(F)F	inconclusive: 61.1 µM [cytotoxic]	–
CCc1c(C)[nH]c2c1C(=O)C(CN1CCOCC1)CC2 (stereo not drawn)	inconclusive: 9.02 µM [cytotoxic, partial curve]	–
COc1ccc(S(=O)(=O)Nc2nnc(CC(C)C)s2)cc1	inconclusive: 26.6 µM [rising, partial curve, poor fit]	–
C=CC(=O)CC	inactive	–
O=Cc1ccccc1S(=O)(=O)O	inconclusive: 7.69 µM [rising, single point]	–
Cn1nnc2c(C(N)=O)ncn2c1=O	inactive	–
CNCCCC1c2ccccc2C=Cc2ccccc21	active: 4.52 µM	–
Cc1ccccc1S(=O)(=O)O	inconclusive: 22.5 µM [rising, full curve, poor fit]	–

SMILES	Potency	activity change, negative = cytotoxicity
Cc1cn([C@H]2C=C[C@@H](CO)O2)c(=O)[nH]c1=O	inconclusive: 60.6 µM [rising, partial curve]	inconclusive: 7.6%
Cc1ccc(Cl)cc1	inconclusive: 1.02 µM [rising, single point]	–
Cc1cccc(C)c1[N+](=O)[O-]	inconclusive: 34.4 µM [rising, partial curve, poor fit]	–
CC(C)(C)c1ccc(OC(=O)c2ccccc2O)cc1	inconclusive: 48.6 µM [cytotoxic, partial curve]	–
CCOC(=O)C(Br)c1ccccc1 (stereo not drawn)	inactive	–
CCOC(=O)CC(=O)c1cc(F)c(Cl)nc1Cl	inconclusive: 70.3 µM [single point]	–
CC(C)O.CC(C)O.CCOC(=O)/C=C(\C)O.CCOC(=O)/C=C(\C)O.[Ti]	inactive	–
Cc1ccc(N)c([N+](=O)[O-])c1	inconclusive: 76 µM [cytotoxic, single point]	–
CCCCCCOCCO	inactive	–
CNCC[C@@H](Oc1ccccc1C)c1ccccc1	active: 16.8 µM	–
CCCNC(C)(C)COC(=O)c1ccccc1	inactive	–
NS(=O)(=O)c1cc2c(cc1Cl)NCNS2(=O)=O	–	inconclusive: 30.1%
C1CCCNCCC1	–	inconclusive: 13.2%
CN1[C@@H]2CC[C@H]1CC(OC(=O)c1c[nH]c3ccccc13)C2 (stereo partly drawn)	inconclusive: 11.9 µM [cytotoxic, partial curve, poor fit]	–
Cc1cccnc1	inconclusive: 0.621 µM [rising, single point]	–
F[B-](F)(F)F	inconclusive: 49.2 µM [rising, partial curve]	–
c1ccc2c(CC3=NCCN3)cccc2c1	inconclusive: 26.6 µM [cytotoxic, partial curve]	–
NCCOCCN	inactive	–
CC(C)(C)C(=O)Oc1ccc(S(=O)(=O)Nc2ccccc2C(=O)NCC(=O)O)cc1	inconclusive: 33.5 µM [rising, partial curve, poor fit]	–

test: qHTS assay for identifying genotoxic compounds that show differential cytotoxicity against isogenic chicken DT40 cell lines with known DNA damage response pathways - Rev3 mutant cell line (AID 743014); conditions: chicken DT40 Rev3-/- viability, CellTiter-Glo, 40 h; activity, negative = cytotoxicity: at 68.4 µM (top of the series) unless noted; note: nearly all actives have a fitted effect of over 55% in size

SMILES	Potency
C/C=C1\[C@H]2C=C(C)C[C@]1(N)c1ccc(=O)[nH]c1C2	inactive
CC[N+](CC)(CC(=O)Nc1c(C)cccc1C)Cc1ccccc1 (tested in a mixture with another compound)	active: 16 µM
O=C(NCC1CCCCN1)c1cc(OCC(F)(F)F)ccc1OCC(F)(F)F (stereo not drawn)	inconclusive: 33.5 µM [cytotoxic, single point] and inconclusive: 60 µM [cytotoxic, partial curve]
CN1CCC(=C2c3ccccc3CC(=O)c3sccc32)CC1	inconclusive: 33.5 µM [cytotoxic, single point]
C[C@]12CCC(=O)C=C1CC[C@H]1[C@@H]3CC[C@](O)(C(=O)CO)[C@@]3(C)C[C@H](O)[C@@]12F	inconclusive: 5.96 µM [cytotoxic, full curve]
O=C(Nc1ccc2c(c1)Cc1ccccc1-2)C(F)(F)F	inconclusive: 27.3 µM [cytotoxic, single point]
CNCCCC1c2ccccc2C=Cc2ccccc21	active: 12.7 µM
Cc1ccccc1S(=O)(=O)O	inactive
Cc1ccc(Cl)cc1	inactive
CC(C)(C)c1ccc(OC(=O)c2ccccc2O)cc1	inconclusive: 61.1 µM [cytotoxic]
CCOC(=O)C(Br)c1ccccc1 (stereo not drawn)	inconclusive: 61.1 µM [cytotoxic, single point]
Cc1ccc(N)c([N+](=O)[O-])c1	inconclusive: 67.8 µM [cytotoxic, single point]
CNCC[C@@H](Oc1ccccc1C)c1ccccc1	inconclusive: 33.5 µM [cytotoxic, single point]
CCCNC(C)(C)COC(=O)c1ccccc1	inconclusive: 23.7 µM [rising, partial curve, poor fit]
NS(=O)(=O)c1cc2c(cc1Cl)NCNS2(=O)=O	inactive
Cc1cccnc1	inactive
c1ccc2c(CC3=NCCN3)cccc2c1	inconclusive: 21.1 µM [cytotoxic, partial curve, poor fit]
CC(C)(C)C(=O)Oc1ccc(S(=O)(=O)Nc2ccccc2C(=O)NCC(=O)O)cc1	inconclusive: 16.8 µM [rising, partial curve, poor fit]
